The record followed here is PMC10276003.

Amino acid sequences for entries named in this document (tags omitted). A change or cut given only in a name is not applied to a line headed by its entry. Chains listed by the source or under a name are the forms on record and can include a tag or linker.
UniProt Q9UKV8: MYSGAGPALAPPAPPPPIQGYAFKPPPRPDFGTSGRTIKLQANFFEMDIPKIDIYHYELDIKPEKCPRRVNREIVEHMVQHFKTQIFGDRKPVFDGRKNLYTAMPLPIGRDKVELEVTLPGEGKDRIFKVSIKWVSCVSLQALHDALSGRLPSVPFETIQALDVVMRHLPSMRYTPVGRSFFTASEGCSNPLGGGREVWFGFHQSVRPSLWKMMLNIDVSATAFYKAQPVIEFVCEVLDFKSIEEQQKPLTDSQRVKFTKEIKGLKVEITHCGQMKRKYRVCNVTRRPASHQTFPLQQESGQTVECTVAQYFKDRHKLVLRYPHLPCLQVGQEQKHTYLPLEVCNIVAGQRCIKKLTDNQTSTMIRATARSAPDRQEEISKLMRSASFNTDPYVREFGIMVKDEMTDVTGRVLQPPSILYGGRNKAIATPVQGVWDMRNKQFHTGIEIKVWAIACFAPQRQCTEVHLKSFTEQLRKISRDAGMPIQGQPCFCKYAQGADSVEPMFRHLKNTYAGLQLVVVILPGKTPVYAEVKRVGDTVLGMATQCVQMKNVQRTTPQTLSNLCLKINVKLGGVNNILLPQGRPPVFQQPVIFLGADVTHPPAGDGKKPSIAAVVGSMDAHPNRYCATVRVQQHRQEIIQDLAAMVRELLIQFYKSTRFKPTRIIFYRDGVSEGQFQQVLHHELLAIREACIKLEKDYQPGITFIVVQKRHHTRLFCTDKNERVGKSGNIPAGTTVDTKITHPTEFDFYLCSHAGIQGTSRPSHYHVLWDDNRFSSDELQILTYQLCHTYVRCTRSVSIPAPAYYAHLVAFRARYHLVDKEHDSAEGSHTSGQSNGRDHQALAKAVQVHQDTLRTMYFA
MBP-PAZ 4A (AGO2 PAZ domain 235-348, 323PHLP326 to four alanines) (Q9UKV8, form named): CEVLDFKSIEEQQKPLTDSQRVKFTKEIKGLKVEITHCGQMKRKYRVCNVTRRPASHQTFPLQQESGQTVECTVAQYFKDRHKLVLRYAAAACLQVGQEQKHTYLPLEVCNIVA

Results are given in words; binding and its absence hold for the method and conditions named. For part of these data: In cells and extracts the contact can be indirect. Some results given as binding are weak or reduced against the parent protein; the word gives no strength.

One assay has as its target GST-GRB2 (UniProt P62993). The assay can be described thus: pull-down; GST-GRB2 on glutathione superflow resin, 1 mg lysate of serum-starved cells in 500 ul, 1 h at room temperature; western blot; only the target purified. In general terms: Immunoblotting shows a protein as a band on a membrane.
The target of assay [1] is growth factor receptor-bound protein 2 (GRB2), endogenous (human (endogenous in HEK293T, A498, PC3)) (UniProt P62993). Nature of the assay: co-IP; endogenous proteins; serum-starved HEK293T, A498 and PC3 cells; 500 ug lysate, 4 ug antibody overnight at 4 C, Protein A/G magnetic beads; western blot.
Assay [2] has as its target RFP-tagged GRB2 (wild type) (UniProt P62993). Nature of the assay: FRET or BRET; fluorescence lifetime imaging microscopy (FLIM) of GFP; HEK293T with stable FGFR2 expression, transfected, serum-starved, fixed. A general note: Bioluminescence resonance energy transfer reports proximity on the nanometre scale.
The target is the same in assay [3]. The assay can be described thus: FRET or BRET; GFP- and RFP-tagged proteins co-transfected in HEK293T, serum-starved overnight, fixed; confocal FRET signal.
Another assay deals with RFP-GRB2 W193K (UniProt P62993). The description is as above.
The next assay concerns the target RFP-GRB2 R86A (UniProt P62993). The assay is described as above.
Assay [4] has as its target AGO2 (purified as GST-AGO2, GST cleaved) (human) (UniProt Q9UKV8). The assay can be described thus: MST; 2.29 to 75,000 nM unlabelled DICER1^CT with 100 nM Atto 488-labelled AGO2 pre-incubated with 25 uM GRB2; 20 mM HEPES, 150 mM NaCl, 1 mM TCEP pH 7.5; both purified.
Assay [5] has the same target. Nature of the assay: MST; 2.29 to 75,000 nM unlabelled DICER1^CT with 100 nM Atto 488-labelled AGO2 pre-incubated with 50 uM GRB2; 20 mM HEPES, 150 mM NaCl, 1 mM TCEP pH 7.5; both purified.
The next assay concerns the target His-tagged GRB2 (UniProt P62993). The assay can be described thus: ITC; 500 uM MBP-tagged AGO2 domain titrated into 20 uM His-tagged GRB2; 25 C; 20 mM Tris-HCl pH 8, 150 mM NaCl, 10% glycerol, 1 mM beta-mercaptoethanol; one-site model with n fixed at 1; both purified.

For the substance “Argonaute 2 (AGO2), endogenous (from UniProt Q9UKV8 1-859)”, the binding result (in the assay with GST-GRB2; in assay [1]) was “binds” each time.

In the case of “GFP-tagged full length AGO2 (wild type) (from UniProt Q9UKV8 1-859)”, the binding entry (in assay [2]; in assay [3]; with RFP-GRB2 W193K; in the assay with RFP-GRB2 R86A) was “binds” throughout. “His-tagged GRB2 (from UniProt P62993 1-217)”: the binding entry in assay [4] and in assay [5] was “binds” in each case.

Regarding “MBP-PAZ 4A (AGO2 PAZ domain 235-348, 323PHLP326 to four alanines) (from UniProt Q9UKV8 235-348) (domain or fragment)”, the binding entry with His-tagged GRB2 is reported as “no binding (tested: 500 uM titrated into 20 uM GRB2)”. Take “MBP-tagged AGO2 MID domain (residues 450-573) (from UniProt Q9UKV8 450-573) (domain or fragment)”: the binding result with His-tagged GRB2 was “no binding (tested: 500 uM titrated into 20 uM GRB2)”. Same read-out and setting: to “MBP-tagged AGO2 N-terminal domain (residues 1-139) (from UniProt Q9UKV8 1-139) (domain or fragment)” belongs “no binding (tested: 500 uM titrated into 20 uM GRB2)”.

With “MBP-tagged AGO2 PIWI domain (residues 517-818) (from UniProt Q9UKV8 517-818) (domain or fragment)”, the binding entry with His-tagged GRB2 is “no binding (tested: 500 uM titrated into 20 uM GRB2)”.
